According to PMC7819943, “Rice protein-binding microarrays: a tool to detect cis-acting elements near promoter regions in rice”:
The list shows a part of the results.

Target: T1, OsWOX13 (Oryza sativa, UniProt Q5QMM3 1-267)
T1 sequence: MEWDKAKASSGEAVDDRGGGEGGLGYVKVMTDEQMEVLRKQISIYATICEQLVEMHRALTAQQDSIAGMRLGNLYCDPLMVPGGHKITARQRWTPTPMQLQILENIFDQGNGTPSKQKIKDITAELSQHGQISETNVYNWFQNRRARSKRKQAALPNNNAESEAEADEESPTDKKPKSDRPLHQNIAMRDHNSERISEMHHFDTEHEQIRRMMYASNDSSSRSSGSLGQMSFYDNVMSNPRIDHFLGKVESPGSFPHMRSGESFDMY
Experiment: protein-binding microarray (RPBM); PBS, 2% BSA, 51.3 ng/ul salmon testes DNA, 50 uM zinc acetate, 200 nM TF, 25 C, 1 h; high values mean tight binding
Conditions: protein: recombinant; tags: N-terminal polyhistidine and DsRed monomer fusion (pET32a); label: CyDye5-dUTP incorporated in the synthesized complementary strand; 3' TTTTT single-stranded linker to array surface; dsDNA, one strand shown
Method in brief: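 Polyhistidine-tagged DsRed fusions of transcription factors, joined at the N-terminus, were expressed in E. coli BL21-CodonPlus and isolated on Ni–NTA. They were incubated at 200 nM for 1 h at 25 °C on a custom Agilent array, double-stranded and BSA-blocked, in PBS with 2% BSA, salmon testes DNA and 50 µM zinc acetate. The binding signal is per-feature fluorescence intensity (arbitrary units) read on an Axon 4000B scanner after washing.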

Row | Sequence | binding signal
1 | ACTCAAACTTGATATGGGTTAATTAGATCAACAAATTATGCGGAGTCACCTAGTGCAG | 8160 fluorescence intensity (a.u.)
2 | ACCCTCCTTAATTATTACGGTCGACCATATTACCCTCCTACGGAGTCACCTAGTGCAG | 7940 fluorescence intensity (a.u.)
3 | TGATCTAGAATTAAATTGATTGCCATTATAATGGGATCTCCGGAGTCACCTAGTGCAG | 37900 fluorescence intensity (a.u.)
4 | TCATGAAATTAATAGGATGCCACGTCGACTTGGTTGTTCCCGGAGTCACCTAGTGCAG | 3510 fluorescence intensity (a.u.)
5 | TATTGTAAATCTACAGGTGTAAGGTGGCGTATCATAAGATCGGAGTCACCTAGTGCAG | 3640 fluorescence intensity (a.u.)
6 | TGGTAAATTTCCAATTACAAACGCGATCACATACAGTCGACGGAGTCACCTAGTGCAG | 29300 fluorescence intensity (a.u.)
7 | GGAAAATAAATTATTAAATGGAATGATAAAAGAAAACAGGCGGAGTCACCTAGTGCAG | 21200 fluorescence intensity (a.u.)
8 | TCAGATCTTGAATCAATTAGCTACTGCTGTTGTGAAATTGCGGAGTCACCTAGTGCAG | 7150 fluorescence intensity (a.u.)
9 | ATCAAATTTATATATGAAAATAACATTATTTATAACACCACGGAGTCACCTAGTGCAG | 5450 fluorescence intensity (a.u.)
10 | CATAAATTTCTTACTCATGAAAACACACTCCCCTTCTTTTCGGAGTCACCTAGTGCAG | 4600 fluorescence intensity (a.u.)
11 | ACTAAATAAATAATTCCATGTCGATTATGACACTTGAGTTCGGAGTCACCTAGTGCAG | 3800 fluorescence intensity (a.u.)
12 | TTTCAAATTAAATGGCATTGTTTTGTAGTTATATAATGGACGGAGTCACCTAGTGCAG | 11100 fluorescence intensity (a.u.)
13 | AGAATTAAAACTCAATCAATCATACGTTAATAGCATATTGCGGAGTCACCTAGTGCAG | 31800 fluorescence intensity (a.u.)
14 | GCCTAACATGTATTGACCAAATAATCATATTTGGTAGGCACGGAGTCACCTAGTGCAG | 5620 fluorescence intensity (a.u.)
15 | ACCTTTTGTTAACATGTTTACTGATTGTAGATGTGGGACTCGGAGTCACCTAGTGCAG | 11900 fluorescence intensity (a.u.)
16 | ACCCTGCGGATTAACAGAGTAAACTGCAACAAACCACGCGCGGAGTCACCTAGTGCAG | 3640 fluorescence intensity (a.u.)
17 | CATCAATTGATGATCTGACTGTCTGAGACGACCATGAAATCGGAGTCACCTAGTGCAG | 31500 fluorescence intensity (a.u.)
18 | AGATAGGTCCTTAATTTGCAATTGCCCCGCTCTGGTCTGGCGGAGTCACCTAGTGCAG | 4600 fluorescence intensity (a.u.)
19 | CAGATGGATTCTATAATTTGTTTTATTATTAGTCTACATTCGGAGTCACCTAGTGCAG | 5670 fluorescence intensity (a.u.)
20 | ATAATTTAATTTTGACCAAACTTAAAATGTCTTATAACCTCGGAGTCACCTAGTGCAG | 26700 fluorescence intensity (a.u.)
21 | ATATAATATATATTTATAGTTAACTATTATATAAATAAGACGGAGTCACCTAGTGCAG | 4120 fluorescence intensity (a.u.)

Row | Sequence | binding signal
22 | GCAAGTAACTTGCTGTAATTAATTACTCATCCACTCAAAACGGAGTCACCTAGTGCAG | 11500 fluorescence intensity (a.u.)
23 | CGAACTTATAATTACTGTGTTAAGTAGTGGCCCCTACAGCCGGAGTCACCTAGTGCAG | 4430 fluorescence intensity (a.u.)
24 | CGTTGACAACAGTTAGATAGGCTACCCCAAATATTGTACTCGGAGTCACCTAGTGCAG | 23800 fluorescence intensity (a.u.)
25 | AATTAATTAACTAAATGCTTAAAGCTAGCCATGCTTTGGGCGGAGTCACCTAGTGCAG | 35300 fluorescence intensity (a.u.)
26 | GTATAGTGATTGGTTTGGTCGGAAATACATGACGTCATAACGGAGTCACCTAGTGCAG | 26400 fluorescence intensity (a.u.)
27 | TGTCTGGTGAGTTAATTAATCAGTGCTGCTCGAAGTAGACCGGAGTCACCTAGTGCAG | 5930 fluorescence intensity (a.u.)
28 | TTATCTATCAATAACACTTTTCAACACTAGATTAATATCCCGGAGTCACCTAGTGCAG | 3710 fluorescence intensity (a.u.)
29 | CACTACAAATTAGGTGGATCTCCTCTTCTGAAGATCACACCGGAGTCACCTAGTGCAG | 3340 fluorescence intensity (a.u.)
30 | TGTGAATATGATTAGCTCGTCCTACTGCGAGCTAGACACGCGGAGTCACCTAGTGCAG | 12000 fluorescence intensity (a.u.)
31 | ACAAATTAAACATAAGCAAAACTTCGTAATATTCAGTTAGCGGAGTCACCTAGTGCAG | 16600 fluorescence intensity (a.u.)
32 | TTGGATTAATTGAATAGCACGGAACGAAAGAATTCACATCCGGAGTCACCTAGTGCAG | 12300 fluorescence intensity (a.u.)
33 | CTTTTAATTTGATTTTGATTCTTCATCCACAATGCATGATCGGAGTCACCTAGTGCAG | 44400 fluorescence intensity (a.u.)
34 | ATGTTATTACATGATTAAAAGAAGCCAGTATAAGAGAGGTCGGAGTCACCTAGTGCAG | 3240 fluorescence intensity (a.u.)
35 | CGACTTGTACGATGATTGAGCAGTTGGGCATGGAATGTTACGGAGTCACCTAGTGCAG | 9830 fluorescence intensity (a.u.)
36 | CATTAACAAAATTGGAAGTAGAAGGCAAGTAATTGTGTGGCGGAGTCACCTAGTGCAG | 9220 fluorescence intensity (a.u.)
37 | GTCGAAATAACTAATTTTGCTATAATCAACCACTTTGCCACGGAGTCACCTAGTGCAG | 5590 fluorescence intensity (a.u.)
38 | GTGATTGAATTGATTGATTATGAACCATGATGATCTCATCCGGAGTCACCTAGTGCAG | 43700 fluorescence intensity (a.u.)
39 | ATAATTGTTAGCTCTGATGTTGCCTTCATCGGAGGTCATACGGAGTCACCTAGTGCAG | 8640 fluorescence intensity (a.u.)
40 | AGTTATGTAATTGGATCATGAGTAGATATACATGTGTGCTCGGAGTCACCTAGTGCAG | 29300 fluorescence intensity (a.u.)
41 | TTCCTTGTCTCCTACTGCTTACTCCCTCCGTCTCAAAATACGGAGTCACCTAGTGCAG | 3460 fluorescence intensity (a.u.)
42 | ATAGATTGTGAAGATTTTCAGAGAAAGTTATTGCTAAACACGGAGTCACCTAGTGCAG | 9210 fluorescence intensity (a.u.)
